From PubChem BioAssay AID1745845 (National Center for Advancing Translational Sciences (NCATS), 2022)
In all, about 360,000 compounds went through this assay and about 2,600 (0.72%) were called active. Inconclusive means that the source gave no clear call. Such entries were picked first, then a sample of the others. Calls come from the whole dose curve; as a rule, active = well fitted inhibition curve with a large enough effect; inconclusive = small, poorly fitted or top-dose-only effect; inactive = no such curve, though single readings can be large or run the other way. Where the call is inconclusive, the potency comes from a doubtful curve fit.

assay: Primary qHTS for Inhibitors of ATXN expression; settings: HEK-293 ATXN2-luciferase reporter, luminescence, 24 h; activity change, negative = inhibition: at 57 µM (top of the series); note: nearly all actives have a fitted effect of over 55% in size
Procedure, shortened: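 qHTS (up to 57 uM final) was run with 24 h compound exposure of reporter cells at 37 °C. Each well was multiplexed: SteadyGlo luminescence measured ATXN2-luciferase expression after a fluorogenic Gly-Phe-AFC viability readout (25 uM final).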
% is set by controls: 0 for no effect and ±100 for the full control effect; potency is the fitted concentration of half-maximal effect; tags give direction and shape of the fitted curve.

Potency, inconclusive:
Nc1ncnc2oc(-c3ccco3)c(-c3ccco3)c12 17.8 µM [inhibitor, partial curve, poor fit]
O=C(NCC(F)(F)F)c1cc2c(c(-c3cccc(-c4ccccc4F)c3)n1)[C@H](CCO)N(C(=O)CC1CC1)C2 22.4 µM [inhibitor, partial curve, poor fit]
Cc1sc(NC(=O)c2ccco2)c(C(c2cccnc2)N2CCC(C)CC2)c1C (stereo not given) 14.1 µM [inhibitor, partial curve, poor fit]
CCC/C=C/c1ccc(CN2C(CC(C)C)C(=O)N(Cc3cn(CCC4OCCCO4)nn3)CCS2(=O)=O)cc1 (stereo not given) 35.5 µM [inhibitor, partial curve, poor fit]
Cc1nc2c(-c3ccc(F)cc3)c(C)nn2c(C)c1CCC(=O)Nc1ccccc1F 14.1 µM [inhibitor, partial curve]
COc1ccccc1C(=O)NCCn1cc(SCc2ccc(C)cc2)c2ccccc21 39.8 µM [inhibitor, partial curve, poor fit]
COc1ccc(OC)c2sc(N3CCN(C(=O)c4ccc5c(c4)CCCC5)CC3)nc12 39.8 µM [inhibitor, single point]
CCN1CCCC1CNC(=O)C1CCN(Cc2nc(-c3cccc(Br)c3)oc2C)CC1 (stereo not given) 15.8 µM [inhibitor, partial curve, poor fit]
CC(C)N1C(=O)/C(=C\c2nc3ccccc3c(=O)n2-c2ccccc2)c2ccccc21 39.8 µM [inhibitor, single point]
COc1ccccc1N1CCN(c2ccc(=O)n(CC(=O)NCc3ccc(OC(C)C)cc3)n2)CC1 31.6 µM [inhibitor, single point]
CC1CCN(c2ccc(-c3cccc(NC(=O)C(F)(F)F)c3)nn2)CC1 3.16 µM [inhibitor, partial curve, poor fit]
CC(C)=CCc1c2c(c3occ(-c4ccc(O)cc4)c(=O)c3c1O)C=CC(C)(C)O2 31.6 µM [inhibitor, single point]
CCc1nc2ccc(C(=O)NC3CCN(Cc4ccccc4)CC3)cn2c1N(CC)Cc1cccc(Br)c1 35.5 µM [inhibitor, single point]
O=[N+]([O-])c1ccc(O)c(C2CCCCC2)c1 39.8 µM [inhibitor, single point]
CC(C)N(CCNCC(O)COc1ccc(C(C)(C)c2ccccc2)cc1)C(C)C (stereo not given) 21.2 µM [inhibitor, partial curve, poor fit]
CCc1ccc(OCC(=O)NC(NC(=S)Nc2ccccc2)C(Cl)(Cl)Cl)cc1 (stereo not given) 37.7 µM [inhibitor, single point]
COC(=O)C1=C(C)NC(C)=C(C(=O)OCCN(C)Cc2ccccc2)C1c1cccc([N+](=O)[O-])c1 (stereo not given) 20 µM [inhibitor, full curve, poor fit]
CC(C)c1cccc(-c2csc(C(O)c3ccc(F)c(F)c3)n2)c1 (stereo not given) 28.2 µM [inhibitor, single point]
CCOC(=O)c1c(NC(=O)C2c3ccccc3Oc3ccccc32)sc(C(N)=O)c1C 28.2 µM [inhibitor, single point]
Cc1cc(C)cc(NC(=O)c2ccc3c(c2)nnn3C2CCCC2)c1 6.31 µM [inhibitor, partial curve, poor fit]
COC(=O)c1cccc(NC(N)=S)c1 35.5 µM [inhibitor, single point]
C[C@H](NC(=O)c1nc[nH]c1C(=O)N[C@@H](CCCCNC(=O)OC(C)(C)C)C(=O)OC(C)(C)C)C(=O)OC(C)(C)C 31.6 µM [inhibitor, single point]

Potency, active:
S=C(Nc1ccccc1)Nc1ccc(OCc2ccc(Cl)cc2Cl)cc1 1 µM
CC(NCC(O)COc1ccc2ccccc2c1)c1ccccc1 (stereo not given) 17.8 µM

Activity change, negative = inhibition, inactive:
O=[N+]([O-])c1cc2c(c(CSc3nnc(Nc4ccccc4)s3)c1)OCOC2 -1.13%
Cc1nn(C)c2c1c(C(F)(F)F)cc(=O)n2CC(=O)NCCC(C)C 5.47%
Cc1ccc(N2CCN(S(=O)(=O)c3cc(C(=O)Nc4cc(Cl)cc(Cl)c4)ccc3F)CC2C)cc1 (stereo not given) -16.8%
N#Cc1ccccc1NC(=O)c1ccccc1OCC(=O)Nc1ccc2c(c1)oc1ccccc12 -23.8%
O=C(/C=C/c1ccco1)Nc1ccc2c(c1)OCCO2 6.9%
Cc1nn(C)cc1-c1n[nH]c(=S)n1-c1ccc(F)cc1 2.74%
CCCn1c(C(O)c2cccc(OC)c2)nc2ccccc21 (stereo not given) -27.2%
COc1cc2c(C#N)c(N3CCc4ccccc4C3)nc(N)c2c(N)n1 10.6%
Cc1oc(-c2cccc(Cl)c2)nc1CS(=O)(=O)CC(=O)NCc1ccccc1Cl 0.755%
CC(=O)NC(CC(=O)N(C)Cc1c(F)cccc1Cl)c1ccccc1 (stereo not given) -1.51%
Cc1ccccc1Cn1c2ccccc2c2cnn(CC(=O)NC(C)CCc3ccccc3)c(=O)c21 (stereo not given) -13.8%
O=c1c2ccccc2nc(/C=C/c2ccccc2)n1CCCO 3.67%
CCN(CC)CCN1C(=O)c2oc3ccc(F)cc3c(=O)c2C1c1ccncc1 (stereo not given) -13.2%
CCOC(=O)c1c(-c2ccc(C)o2)csc1NC(=O)COC(=O)c1cccs1 1.16%
NC(=O)NC(CC(=O)NNC(=O)c1ccccn1)c1ccccc1Cl (stereo not given) -2.33%
COc1ccc(C(=O)Nc2ccc3c(c2)OCCO3)cc1 0%
Cc1ccc(C(=O)O/N=C(\N)Cc2cccs2)cc1[N+](=O)[O-] 15.4%
CCOC(=O)c1cccc(NC(=O)c2cc3c(=O)n(C)c4ccccc4c3n2C)c1 -4.87%
O=C(Nc1ccon1)c1ccc(OC2CCCC2)cc1 98.9%
O=C(O)c1c(Cl)c(Cl)c(Cl)c(Cl)c1C(=O)N1CCCC1 4.03%
COc1cccc(CNC(=O)C(C)n2ncn3cccc3c2=O)c1OC (stereo not given) -2.55%
